In paper PMC4336329 (PLoS ONE, 2015):
Hit rate of the full screen: of about 310,000 compounds, about 14,000 (4.5%) showed an effect of 50% or more. Effects have a minus sign here. The list shows a part of the results.

Molecular target: human ether-à-go-go-related gene (hERG) potassium channel (human, UniProt Q12809)
Experiment: primary screen, population patch clamp on CHO cells stably expressing hERG
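Note: peak tail current of the secondary pulse compared with the same well before compound.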

human ether-à-go-go-related gene (hERG) potassium channel, sequence (Q12809 whole entry, looked up): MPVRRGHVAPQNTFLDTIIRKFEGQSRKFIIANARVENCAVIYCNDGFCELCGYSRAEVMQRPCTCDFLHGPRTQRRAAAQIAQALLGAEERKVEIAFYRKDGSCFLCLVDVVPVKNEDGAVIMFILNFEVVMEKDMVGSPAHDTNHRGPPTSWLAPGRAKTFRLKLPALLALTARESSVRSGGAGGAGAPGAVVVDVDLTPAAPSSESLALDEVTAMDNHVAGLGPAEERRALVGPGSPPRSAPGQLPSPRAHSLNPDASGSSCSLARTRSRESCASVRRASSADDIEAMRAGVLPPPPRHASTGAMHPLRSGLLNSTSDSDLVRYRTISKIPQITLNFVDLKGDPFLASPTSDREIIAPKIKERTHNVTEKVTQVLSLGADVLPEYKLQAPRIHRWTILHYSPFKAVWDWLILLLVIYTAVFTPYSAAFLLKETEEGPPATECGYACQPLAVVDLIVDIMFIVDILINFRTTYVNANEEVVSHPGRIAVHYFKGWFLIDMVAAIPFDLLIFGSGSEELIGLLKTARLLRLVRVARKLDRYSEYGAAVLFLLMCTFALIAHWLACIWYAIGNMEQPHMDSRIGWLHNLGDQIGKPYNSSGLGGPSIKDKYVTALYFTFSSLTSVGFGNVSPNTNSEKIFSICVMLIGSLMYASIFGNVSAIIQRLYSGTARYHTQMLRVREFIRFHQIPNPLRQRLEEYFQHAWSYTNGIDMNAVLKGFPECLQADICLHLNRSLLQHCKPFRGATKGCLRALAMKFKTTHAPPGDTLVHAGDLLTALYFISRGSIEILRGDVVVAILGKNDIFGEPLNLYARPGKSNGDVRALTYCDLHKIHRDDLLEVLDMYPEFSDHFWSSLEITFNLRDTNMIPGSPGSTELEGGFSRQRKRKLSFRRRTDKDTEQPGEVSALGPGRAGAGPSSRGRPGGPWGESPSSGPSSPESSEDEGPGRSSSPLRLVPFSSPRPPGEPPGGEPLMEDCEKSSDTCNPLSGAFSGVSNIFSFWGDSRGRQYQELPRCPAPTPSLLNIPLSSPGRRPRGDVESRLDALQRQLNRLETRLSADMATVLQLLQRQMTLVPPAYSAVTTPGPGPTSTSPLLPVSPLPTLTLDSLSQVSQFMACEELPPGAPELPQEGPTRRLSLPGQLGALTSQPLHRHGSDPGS

SMILES	hERG current change (%, negative = inhibition) at 10uM [%]
O=C(c1ccc(F)cc1)N1CCC2(CC1)NCCc1[nH]cnc12	4.43
CC(C)(C)N/N=C/c1c(O)n(-c2ccc(Cl)cn2)c(=O)c2ccccc12	1.43
Cc1ccc(Cl)cc1NC(=O)C(=O)N/N=C/c1ccc2c(c1)OCO2	15.2
COC(=O)c1cc(C)nc2c1c(C)nn2-c1ccccc1	4.4
O=C(/C=C/c1ccco1)Nc1scc(-c2ccccc2)c1C(=O)O	10.5
CCS(=O)(=O)c1c([N+](=O)[O-])ncn1C	-3.8
Cc1c(/C=N/NC(=O)c2cccnc2)c2ccccn2c1C(=O)c1ccc(F)cc1	-2.38
Cc1ccc(-c2nc3ccccc3nc2NN)cc1	9.04
COc1ccccc1CN1C[C@@H]2C[C@@H](C3=Cc4cccc(OC)c4OC3)N3CCC[C@@]23C1=O	13.8
Cc1ccc(NC(=O)CCc2nnc3ccc(NCc4ccco4)nn23)nc1	9.47
CCN(CC(=O)Nc1c(F)cccc1F)C(=O)CC1CCCCC1	-4.29
Cc1occc1C(=O)NC(C)CCc1ccccc1 (stereo not drawn)	-1.22
CC(=O)Nc1sc2c(c1C#N)CC(C)(C)NC2(C)C	3.1
C/C(=N/NC(=O)CNC(=O)Cc1ccccc1)c1ccc(Cl)cc1	5.97
COc1ccccc1CNC(=O)C1CCN(S(=O)(=O)c2ccc3nc4c(c(C(=O)O)c3c2)CCCC4)CC1	23.2
O=C(NCCCc1ccccc1)c1cccc(Br)c1	-27
Cc1cc(C(C)(C)C)cc(S(=O)(=O)Nc2ccc(O)c(C(=O)O)c2)c1C	-4.48
COc1ccc(NC(=O)CCC(=O)Nc2nnc(C(C)C)s2)cc1Cl	19.2
CCN(CC)Cc1c(O)ccc2occ(C(=O)c3ccc(OC)cc3)c12	-74.2
COc1cccc(NC(=O)COc2cc(C)cc3oc(=O)cc(C)c23)c1	5.18
CN(C(=O)c1ccccc1[N+](=O)[O-])c1ccccc1C(=O)NCc1ccccc1	-7.21
CC(=O)c1cccc(N(C(=O)CNC(=O)c2ccco2)C(C(=O)NCc2ccco2)c2ccccc2)c1 (stereo not drawn)	-17.3

SMILES	hERG current change (%, negative = inhibition) at 10uM [%]
Cc1nc(SC2CC(=O)N(c3ccccc3)C2=O)nc2c1CCCC2 (stereo not drawn)	-3.22
O=C1C2C3c4ccccc4C(c4ccccc43)[C@@H]2c2nc3ccccc3n21 (stereo partly drawn)	7.52
CCN(CC)CCCNC(=O)c1cc(Nc2ccc(OC)cc2OC)nc2ccccc12	-36.1
O=C(Nc1cccc(NC(=O)c2ccco2)c1)c1ccc([N+](=O)[O-])cc1	-18.8
Cc1ccc([N+](=O)[O-])cc1NC(=O)C(Sc1ccccc1)c1ccccc1 (stereo not drawn)	8.52
O=C(Nc1cc(S(=O)(=O)N2CCOCC2)ccc1N1CCOCC1)c1cccc(S(=O)(=O)N2CCCCC2)c1	-17.5
COc1ccc(OC)c2c1CC(C)(C)NC2=O	9.67
Clc1ccc(CN2CCC(Cc3ccccc3)CC2)cc1	-40.9
CN(C)S(=O)(=O)c1cccc(NC(=S)N/N=C/c2cc(Br)ccc2O)c1	9.82
C/C(=N\N1CCN(Cc2ccccc2Cl)CC1)c1ccc(F)cc1	2.05
C/C(CC(=O)NC(C)c1ccccc1)=N\NC(N)=S (stereo not drawn)	5.65
Cn1nccc1C(=O)N/N=C/c1cccnc1	-14.8
O=c1oc2ccc(Cl)cc2cc1-c1nnc(Nc2cccc(C(F)(F)F)c2)s1	18.3
Cc1ccc(-c2nnc(Oc3cccc(C)c3)c3ccccc23)cc1	0.359
COCCNC(=O)/C(C#N)=C/c1c(N2CCCCCC2)nc2c(C)cccn2c1=O	4.39
CCN(CCN(C)C)C(=O)Cn1ncc2c1-c1cc(C)ccc1OC2	-15.7
CCc1nc(SCC(=O)NCc2ccco2)c2c(=O)n(C)c(=O)n(C)c2n1	-0.832
Cc1ccc(S(=O)(=O)Nc2ccc(C(=O)N3CCCC3)cc2)cc1	-0.474
Cc1cc(C)c(C2=CC(=O)C[C@H](c3ccc4c(c3)OCO4)C2)c(C)c1	18.2
CCOc1ccc(C(=O)Nc2ccc(Cl)cn2)cc1Cl	2.73
CCCCN1C[C@H](O)[C@@H](O)[C@H](O)[C@H]1CO.Cl	9.61
COc1ccc(C(C(=O)NC2CCCCC2)N(C(=O)CCl)c2ccccc2Cl)cc1 (stereo not drawn)	0.594

SMILES	hERG current change (%, negative = inhibition) at 10uM [%]
CCNc1nc(NCC)nc(C(=O)NN)n1	-1.56
COc1ccc(Br)cc1CNC(=O)C1CCC(=O)N1C(C)C (stereo not drawn)	-10.1
O=C(NNC(=O)c1cc(Br)ccc1O)c1csc(N2CCOCC2)n1	-3.37
Cc1cc(C(=O)OCC(=O)NCc2ccc(Cl)cc2)c(C)o1	-16.1
CCn1c(SCC(=O)Nc2ccc(NC(=O)c3cccs3)cc2)nnc1-c1cccnc1	4.35
CCOC(=O)c1sc2nc(CC(=O)OC)nc(NCCN(CC)CC)c2c1C	-62.7
CCOC(=O)c1ccc(NC(=O)c2nc[nH]c2C(=O)N(CC)CC)cc1	-5.56
O=C1N=C(N2CCOCC2)SC1=C1CCCCC1	-1.33
CC1CN(C(=O)c2cc(COc3c(F)cccc3F)on2)CCN1C (stereo not drawn)	9.07
CN(Cc1ccno1)Cc1cn(Cc2ccccc2)nc1-c1ccc2c(c1)OCO2	-35.4
CCn1c(SCC(=O)N2CCCCC2)nc(O)cc1=O	-7.46
CC(C)(C)n1nc2c(c1NC(=O)COc1ccc(Cl)cc1)CS(=O)(=O)C2	-46.5
C=CCN(CC=C)Cc1c(C)[nH]c2ccc(C(=O)OCC)cc2c1=O	-20
CC1(C)CC(=O)c2sc(NC(=O)c3ccco3)nc2C1	7.16
CCCc1cc(C(=O)Cc2nc3ccccc3s2)c(O)cc1O	-24
CCOc1ccc(N2C(=O)NC(=O)/C(=C\c3ccc(N4CCOCC4)cc3C)C2=O)cc1	4.46
CC[n+]1c(/C=C2\C=C(C)CC(C)(C)C2)sc2ccccc21.[I-]	-39.7
CCOC(=O)c1c(NC(=O)C(C)N2CCN(S(=O)(=O)c3cccs3)CC2)sc2c1CCC(C)C2 (stereo not drawn)	6.72
CC(=O)Nc1ccc(NC(=S)NC(=O)c2oc3ccccc3c2C)cc1	10.7
COc1cccc(NC(=O)CNC(=O)Cn2cnc3sc(C)c(C)c3c2=O)c1	1.97
CC(C)NC(=O)CCn1nc(-c2ccc(Cl)cc2)c2ccccc2c1=O	1.72
CN1CCN(C(=O)c2ccc3c(=O)n(Cc4ccc(Cl)cc4)c(=S)[nH]c3c2)CC1	-7.38

SMILES	hERG current change (%, negative = inhibition) at 10uM [%]
CCN(C(=O)c1cc([N+](=O)[O-])ccc1NCc1cccnc1)c1ccccc1	-19.8
Nc1ccc(C(O)(C(F)(F)F)C(F)(F)F)cc1	1.55
CC(=O)Nc1ccc(S(=O)(=O)NCCC(=O)OCc2ccc([N+](=O)[O-])cc2)cc1	-57.4
CC12CC3CC(C)(C1)CC(N)(C3)C2.Cl	32.7
Cc1cc(C)n(CC(O)CN(c2ccccc2)S(=O)(=O)c2ccccc2)n1 (stereo not drawn)	7.17
Cc1csc(NC(=O)CSc2nnc(-c3ccc(S(=O)(=O)N4CCCC4)cc3)o2)n1	-9.6
CC1CCN(C(=O)CN2C(=O)c3ccccc3S2(=O)=O)CC1	7.06
O=C(Nc1ncccc1O)c1cccc(S(=O)(=O)NCc2ccccc2)c1	-20.3
COC(=O)CC(c1ccc(F)cc1)n1c(C)ccc1C (stereo not drawn)	8.06
CCN1CCN(S(=O)(=O)c2ccc(OC)c(NC(=O)c3ccccc3F)c2)CC1	-30.8
O=C1CCN(Cc2ccc(O)cc2)CCN1CCO	-46.9
COc1cc(C)nc(N2CCCC(C(=O)Nc3cccc(Cl)c3Cl)C2)n1 (stereo not drawn)	9.03
CCOc1ccccc1NC(=O)CCS(=O)(=O)c1ccc2c(c1)CC(C)N2C(C)=O (stereo not drawn)	8.27
O=C(c1cccc(F)c1)N1CCC2(CC1)NCCc1[nH]cnc12	6.92
COc1ccc(S(=O)(=O)NCc2ccccc2)cc1Br	6.25
Oc1ccc(Nc2nc3ccccc3nc2Nc2ccc(O)cc2)cc1	19.4
COc1cn(-c2ccccc2)nc1C(=O)NCc1ccc(C)cc1	12.6
COc1ccccc1C(=O)NCCCNC(=O)c1ccccn1	13.5
COC(=O)c1ccc(NC(=O)[C@H](C)NC(N)=O)cc1	11.6
Cc1ccccc1NC(=O)c1c(C)nc(SCC(=O)OCc2ccccc2)c(C#N)c1-c1ccc(F)cc1	6.29
CCCCn1c(O)c(C(CC)=NCCCn2ccnc2)c(=O)[nH]c1=O	-43.3
